Source: article PMC8894463
Positions count from the first letter of the chain named. Results are given in words; binding and its absence hold for the method and conditions named. Binding seen in cells or lysates may run through a third protein. Some binding calls cover weakened binding; strength is not graded here. For some assays here: Where a sequence is shown, tags or fusion partners need not be part of it.

T1: HA-tagged TRIM45-C29A (catalytically inactive mutant) (UniProt Q9H8W5)
T1 sequence: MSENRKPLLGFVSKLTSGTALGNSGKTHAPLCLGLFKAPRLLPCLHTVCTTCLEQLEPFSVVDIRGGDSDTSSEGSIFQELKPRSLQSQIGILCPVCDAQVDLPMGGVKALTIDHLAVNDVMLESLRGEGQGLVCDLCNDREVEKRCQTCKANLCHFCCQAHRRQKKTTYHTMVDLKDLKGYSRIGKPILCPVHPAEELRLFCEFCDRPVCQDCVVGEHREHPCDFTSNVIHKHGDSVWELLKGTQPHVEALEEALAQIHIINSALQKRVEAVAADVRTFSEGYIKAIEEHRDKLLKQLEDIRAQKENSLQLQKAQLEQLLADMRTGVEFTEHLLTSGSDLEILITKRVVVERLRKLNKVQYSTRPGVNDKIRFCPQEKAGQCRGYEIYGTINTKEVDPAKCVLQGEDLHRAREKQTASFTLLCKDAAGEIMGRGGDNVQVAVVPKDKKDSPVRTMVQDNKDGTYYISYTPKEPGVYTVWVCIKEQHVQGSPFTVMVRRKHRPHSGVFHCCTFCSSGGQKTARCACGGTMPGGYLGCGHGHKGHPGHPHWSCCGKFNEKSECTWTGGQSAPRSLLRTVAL

T2: HA-tagged wild-type TRIM45 (tripartite motif-containing 45) (UniProt Q9H8W5)
T2 sequence: T1 sequence with A29C

T3: TRIM45 (endogenous, primary cultured mouse microglia) (mouse (endogenous in primary microglia)) (UniProt Q6PFY8)
T3 sequence: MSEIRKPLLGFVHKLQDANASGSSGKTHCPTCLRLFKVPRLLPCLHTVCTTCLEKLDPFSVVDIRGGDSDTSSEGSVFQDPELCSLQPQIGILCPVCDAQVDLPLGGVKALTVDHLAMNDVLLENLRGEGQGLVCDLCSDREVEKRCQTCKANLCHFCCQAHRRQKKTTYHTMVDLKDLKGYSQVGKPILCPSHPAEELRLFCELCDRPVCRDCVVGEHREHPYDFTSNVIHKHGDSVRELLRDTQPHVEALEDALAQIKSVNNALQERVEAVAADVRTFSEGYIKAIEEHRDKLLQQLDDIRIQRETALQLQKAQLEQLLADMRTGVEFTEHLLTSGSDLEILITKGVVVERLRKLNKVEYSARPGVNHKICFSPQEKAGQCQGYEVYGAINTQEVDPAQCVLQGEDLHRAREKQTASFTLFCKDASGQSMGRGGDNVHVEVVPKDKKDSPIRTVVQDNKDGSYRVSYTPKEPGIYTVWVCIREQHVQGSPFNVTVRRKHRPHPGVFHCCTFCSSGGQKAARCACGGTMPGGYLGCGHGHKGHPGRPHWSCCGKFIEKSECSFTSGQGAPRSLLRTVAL

T4: Myc-tagged TAB2 (UniProt Q9NYJ8)
T4 sequence: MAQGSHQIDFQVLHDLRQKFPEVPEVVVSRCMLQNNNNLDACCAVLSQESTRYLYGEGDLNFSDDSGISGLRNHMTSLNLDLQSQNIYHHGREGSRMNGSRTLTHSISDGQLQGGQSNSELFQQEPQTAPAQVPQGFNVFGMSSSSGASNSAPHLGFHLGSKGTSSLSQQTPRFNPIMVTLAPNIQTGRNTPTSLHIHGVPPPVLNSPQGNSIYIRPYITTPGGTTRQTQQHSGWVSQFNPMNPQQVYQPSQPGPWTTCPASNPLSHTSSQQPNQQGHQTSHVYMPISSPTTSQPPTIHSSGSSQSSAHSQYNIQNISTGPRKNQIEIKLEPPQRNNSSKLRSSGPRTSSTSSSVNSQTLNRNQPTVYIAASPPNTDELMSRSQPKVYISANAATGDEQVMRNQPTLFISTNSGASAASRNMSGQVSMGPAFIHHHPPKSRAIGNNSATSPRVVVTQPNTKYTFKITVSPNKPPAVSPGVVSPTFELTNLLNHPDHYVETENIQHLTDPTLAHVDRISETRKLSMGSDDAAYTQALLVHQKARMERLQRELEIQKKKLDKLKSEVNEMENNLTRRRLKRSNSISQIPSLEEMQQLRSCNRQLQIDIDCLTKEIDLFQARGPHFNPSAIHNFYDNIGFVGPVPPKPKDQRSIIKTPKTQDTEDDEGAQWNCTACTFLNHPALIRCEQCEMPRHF

B1: Flag-tagged TAB2 (protein, UniProt Q9NYJ8 1-693)
chain: T4 sequence
B2: TAB2 (endogenous, primary cultured mouse microglia) (protein, UniProt Q99K90 1-693)
chain: MAQGSHQIDFQVLHDLRQKFPEVPEVVVSRCMLQNNNNLDACCAVLSQESTRYLYGEGDLNFSDESGISGLRNHMTSLNLDLQSQNVYHHGREGSRVNGSRTLTHSVSDGQLHGGQSNNELFQQEPQTAPAQVPQGFNVFGMPSTSGASNSTPHLGFHLGSKGTSNLSQQTPRFNPIMVTLAPNIQTGRSTPTSLHIHGVPPPVLNSPQGNSIYIRPYITTPSGTARQTQQHSGWVSQFNPMNPQQAYQPSQPGPWTTYPASNPLPHTSTQQPNQQGHQTSHVYMPISSPTTPQPPTIHSSGSSQSSAHSQYNIQNISTGPRKNQIEIKLEPPQRNSSSKLRSSGPRTASTSSLVNSQTLNRNQPTVYIAASPPNTDEMISRSQPKVYISANATAGDEQGMRNQPTLFISTNSGPSAASRNMSGQVSMGPAFIHHHPPKSRVLGGNSATSPRVVVTQPNTKYTFKITVSPNKPPAVSPGVVSPTFELTNLLNHPDHYVETENIQHLTDPALAHVDRISEARKLSMGSDDAAYTQALLVHQKARMERLQRELEMQKKKLDKLKSEVNEMENNLTRRRLKRSNSISQIPSLEEMQQLRSCNRQLQIDIDCLTKEIDLFQARGPHFNPSAIHNFYDNIGFVGPVPPKPKDQRSTIKAPKTQDAEDEEGAQWNCTACTFLNHPALIRCEQCEMPRHF
B3: Flag-tagged TAK1 (enzyme, UniProt O43318 1-606)
chain: MSTASAASSSSSSSAGEMIEAPSQVLNFEEIDYKEIEVEEVVGRGAFGVVCKAKWRAKDVAIKQIESESERKAFIVELRQLSRVNHPNIVKLYGACLNPVCLVMEYAEGGSLYNVLHGAEPLPYYTAAHAMSWCLQCSQGVAYLHSMQPKALIHRDLKPPNLLLVAGGTVLKICDFGTACDIQTHMTNNKGSAAWMAPEVFEGSNYSEKCDVFSWGIILWEVITRRKPFDEIGGPAFRIMWAVHNGTRPPLIKNLPKPIESLMTRCWSKDPSQRPSMEEIVKIMTHLMRYFPGADEPLQYPCQYSDEGQSNSATSTGSFMDIASTNTSNKSDTNMEQVPATNDTIKRLESKLLKNQAKQQSESGRLSLGASRGSSVESLPPTSEGKRMSADMSEIEARIAATTAYSKPKRGHRKTASFGNILDVPEIVISGNGQPRRRSIQDLTVTGTEPGQVSSRSSSPSVRMITTSGPTSEKPTRSHPWTPDDSTDTNGSDNSIPMAYLTLDHQLQPLAPCPNSKESMAVFEQHCKMAQEYMKVQTEIALLLQRKQELVAELDQDEKDQQNTSRLVQEHKKLLDENKSLSTYYQQCKKQLEVIRSQQQKRQGTS

Assays:
[1] = target: T1, HA-tagged TRIM45-C29A (catalytically inactive mutant); assay: co-IP; HEK293T cells transfected with Flag-TAB2 and HA-tagged wild-type TRIM45 or TRIM45-C29A; IP with anti-HA beads, then immunoblot (Fig. 5c)
[2] = target: T2, HA-tagged wild-type TRIM45 (tripartite motif-containing 45); assay: co-IP; HEK293T cells co-transfected with HA-TRIM45 and Flag-tagged partners, or with TAB2 or TRIM45 deletion mutants and the tagged partner (Fig. 3b, f, g); which protein was precipitated not given
[3] = target: T3, TRIM45 (endogenous, primary cultured mouse microglia) (mouse (endogenous in primary microglia)); assay: co-IP; primary cultured mouse microglia, endogenous proteins, with or without OGD/R (Fig. 3c)
Myc-tagged TAB2 = target: T4, Myc-tagged TAB2; assay: co-IP; HEK293T cells transfected with Myc-TAB2, Flag-TAK1 and HA-tagged wild-type TRIM45 or TRIM45-C29A; IP with anti-Myc beads, then immunoblot (Fig. 5e)

| Binder | binding [1] | binding [2] | binding [3] | binding (Myc-tagged TAB2) |
| --- | --- | --- | --- | --- |
| B1 | no binding | binds |  |  |
| B2 |  |  | binds |  |
| B3 |  | no binding |  | binds |
